Among all 310,000 compounds or so, about 2,200 (0.71%) showed an effect of 50% or more. Effects have a minus sign here. The list shows a part of the results.
Molecular target: human ether-à-go-go-related gene (hERG) potassium channel (human, UniProt Q12809)
Experiment: primary screen, population patch clamp on CHO cells stably expressing hERG

human ether-à-go-go-related gene (hERG) potassium channel, sequence (Q12809 whole entry, looked up): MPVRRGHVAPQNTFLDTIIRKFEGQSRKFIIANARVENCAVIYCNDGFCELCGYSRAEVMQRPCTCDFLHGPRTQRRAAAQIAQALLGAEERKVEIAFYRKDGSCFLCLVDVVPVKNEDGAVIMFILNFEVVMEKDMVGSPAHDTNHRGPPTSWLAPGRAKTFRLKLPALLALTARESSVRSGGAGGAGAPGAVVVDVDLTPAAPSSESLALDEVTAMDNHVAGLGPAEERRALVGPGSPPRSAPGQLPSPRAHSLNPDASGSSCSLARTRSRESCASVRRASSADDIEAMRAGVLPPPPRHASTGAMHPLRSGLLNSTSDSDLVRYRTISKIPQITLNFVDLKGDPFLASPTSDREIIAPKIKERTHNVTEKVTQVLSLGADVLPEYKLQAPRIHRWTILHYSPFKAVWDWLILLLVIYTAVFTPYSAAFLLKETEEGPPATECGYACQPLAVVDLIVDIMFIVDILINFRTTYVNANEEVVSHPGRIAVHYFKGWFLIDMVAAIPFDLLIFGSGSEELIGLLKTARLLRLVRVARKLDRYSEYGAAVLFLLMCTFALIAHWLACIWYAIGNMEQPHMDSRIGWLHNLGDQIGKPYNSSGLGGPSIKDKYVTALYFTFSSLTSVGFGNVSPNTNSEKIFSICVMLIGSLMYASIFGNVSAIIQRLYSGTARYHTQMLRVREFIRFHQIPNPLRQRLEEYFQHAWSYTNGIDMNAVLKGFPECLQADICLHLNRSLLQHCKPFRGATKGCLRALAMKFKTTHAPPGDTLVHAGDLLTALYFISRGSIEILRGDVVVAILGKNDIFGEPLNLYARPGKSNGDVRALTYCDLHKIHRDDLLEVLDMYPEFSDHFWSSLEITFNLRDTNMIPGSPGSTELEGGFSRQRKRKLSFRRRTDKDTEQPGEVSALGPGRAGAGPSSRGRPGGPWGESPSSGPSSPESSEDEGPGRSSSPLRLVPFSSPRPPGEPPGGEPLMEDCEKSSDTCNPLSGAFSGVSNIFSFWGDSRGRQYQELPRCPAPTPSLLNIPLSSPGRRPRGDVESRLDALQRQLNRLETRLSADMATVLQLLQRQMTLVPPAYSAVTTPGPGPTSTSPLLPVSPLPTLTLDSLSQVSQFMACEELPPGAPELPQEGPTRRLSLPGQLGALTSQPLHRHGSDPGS

| Compound | hERG current change (%, negative = inhibition) at 1uM [%] |
| --- | --- |
| Cc1nnc(SCC(=O)N(C)c2c(N)n(Cc3ccccc3)c(=O)[nH]c2=O)n1Cc1ccccc1 | 9.85 |
| COC(=O)c1ccc(CN2CCN(CCC(C)C)C(CCO)C2)cc1 (stereo not drawn) | -1.92 |
| O=C(CN=C1NS(=O)(=O)c2ccccc21)OCC(=O)c1ccccc1 | 10.8 |
| COc1cccc(-c2nnc(NC(=O)c3ccc(S(=O)(=O)N(CC(C)C)CC(C)C)cc3)o2)c1 | 15.7 |
| CCOC(=O)C(O)(c1ccc(NC(=O)Oc2ccccc2)cc1)C(F)(F)F (stereo not drawn) | -0.695 |
| O=C(NCc1ccc(Cl)cc1)C(=O)N/N=C/c1ccc(Br)cc1 | 23.1 |
| COCC1CCN(C(=O)c2ccc(OC)c(OC3CCN(C(C)C)CC3)c2)CC1 | 19.2 |
| CCOc1ccc2nc(N/C(N)=N/C(=S)Nc3ccc(OC)cc3)nc(C)c2c1 | 8.56 |
| CSc1nc2ccccc2s1 | 12.5 |
| Cc1c(C(=O)NCc2cccnc2)oc2ccc(S(=O)(=O)N3CC(C)CC(C)C3)cc12 (stereo not drawn) | 13.6 |
| CCOC(=O)C1CCN(C(=O)c2cccc(S(=O)(=O)N3CCc4ccccc43)c2)CC1 | 2.73 |
| Cc1ccc2nc(-c3ccc(NC(=O)CCS(=O)(=O)c4ccccc4)cc3)sc2c1 | 4.86 |
| CCOC(=O)c1cc(OC(=O)c2cccc([N+](=O)[O-])c2)n(-c2ccccc2)n1 | 6.6 |
| CCCn1c(=O)c2c(nc3n2CC(C)CN3Cc2ccccc2)n(C)c1=O (stereo not drawn) | 0.265 |
| CCOc1ccc2nc(N(CCCN(C)C)C(=O)c3ccc4c(c3)CCCC4)sc2c1.Cl | 8.43 |
| CC(C)NC(=O)c1sc2c(c1C(=O)Nc1cccnc1)CCCC2 | 0.763 |
| CCC(C(=O)OCC(=O)Nc1ccc(OC)cc1OC)c1ccccc1 (stereo not drawn) | 1.24 |
| CC(=O)Nc1cccc(OCC(O)Cn2c(C)nc3ccccc32)c1 (stereo not drawn) | 7.94 |
| COc1ccc(Cl)cc1CSc1ncn[nH]1 | 10.5 |
| O=C(CCNC(=O)c1ccco1)Nc1ccccc1 | 8.86 |
| O=C(NCCC1=CCCCC1)c1ccc(F)cc1 | 6.69 |
| CCc1nc2cc(Cl)c(Cl)cc2[nH]1 | 6.03 |
| O=C(CSc1ncnc2nc[nH]c12)c1ccccc1 | 17.4 |

| Compound | hERG current change (%, negative = inhibition) at 1uM [%] |
| --- | --- |
| O=C(O)CCC(=O)c1ccc2ccc3cccc4ccc1c2c34 | 14.1 |
| CCN(Cc1ccccc1)C(=O)CS(=O)(=O)c1ccccc1 | 0.823 |
| COc1ccc(C2(C)NC(=O)N(CC(=O)Nc3ccc(C)cc3Br)C2=O)cc1OC (stereo not drawn) | 9.71 |
| C=CCOc1c(Br)cc(/C=N\n2nnnc2N)cc1OC | 2.84 |
| COc1ccc2c(c1)c(C(=O)N/N=C/c1cccc(O)c1)c(C)n2C | 1.51 |
| O=C(NC1=NCCS1)c1ccc(Cl)c(S(=O)(=O)N2CCCC2)c1 | 10.5 |
| O=C1CC(c2ccccc2)CC(O)=C1C=NC1CCCCCC1 (stereo not drawn) | 12.8 |
| CCN1/C(=C2/SC(=S)N(NC(C)=O)C2=O)Sc2ccccc21 | 14.8 |
| COc1ccc(S(=O)(=O)N2CCN(C(=O)C3CC3)CC2)cc1Br | -5.19 |
| O=C(O)c1ccc(NC2=C(n3nnc4ccccc43)C(=O)c3ccccc3C2=O)cc1 | 2.14 |
| CCN(CC)S(=O)(=O)c1cc(NC(=O)CN2C(=O)NC3(CCCc4ccccc43)C2=O)ccc1C (stereo not drawn) | 7.67 |
| O=C(O)C(=O)O.OC(COC1CCCCC1)C[NH+]1CCCCC1 (stereo not drawn) | 10.5 |
| CCN1CCN(C(=S)c2ccc(OCC(=O)NCc3ccccc3)cc2)CC1 | 10.8 |
| O=C(NCCN1CCCCC1)Nc1ccc([N+](=O)[O-])cc1 | 8.5 |
| COc1ccc(/C=C/C(=O)C2(O)CCCCC2)cc1 | 5.58 |
| O=C(O)c1cc(-c2ccc(-c3c(-c4ccc5c(c4)OCO5)noc3-c3ccsc3)cc2)nc2ccccc12 | 9.2 |
| CCC(C)[C@H]1COCCS(=O)(=O)N1Cc1ccccc1 (stereo partly drawn) | 7.03 |
| O=C(c1ccc(OC2CCN(C(=O)c3cccnc3)CC2)cc1)N1CCCCCC1 | 11.6 |
| CC1CC(C)CN(CCCNC(=O)c2ccc3c(SCC(=O)O)c4c(nc3c2)CCC4)C1 (stereo not drawn) | 14.9 |
| CC(C)CC(=O)NN(C)c1nc(-c2ccccc2)nnc1C(F)(F)F | 14.7 |
| C=CCNC(=O)C(C(=O)OCC)C1CCCCC1 (stereo not drawn) | -18.2 |
| Cn1c(CN2CCCCC2)nc2cc(NC(=O)c3cccc(Br)c3)ccc21 | -20.1 |

Source: article PMC4336329 (PLoS ONE, 2015)
